# Reference: the supplement of paper PMC8728848
# This is one part of the list.
# B1: PX9961T-pdi-555-33-555 (Parabacteroides distasonis) (protein)
# chain: FDEETAFQSPTLVYVNTVASLYNNMFKIMGNDRHVYDLNTFSSDEAMLPCRIGDWEDGGLWQNIFLHRWGTMNDLTKNSWDFLYEQIGKCNQSVDKLQAFAEEQPDVEYFKVYLEEVRAVRAFFYYELLDLFARVPLVTSSTTPMSEVKQSERSVVFNFVRSELEEALPYLSDNRSNQKGEYYGRITKPVAYMILAKLALNAEVYADDNWTDGNRPAGKNIKFTVDGKEMNAWEATIAYVDKLEALGYKLQGNFSENFAVANETSVENIFTVPMDPVAYPDAKDYNLVRTRHYDHATAYGQSGWNGSCATVKAMNVFKFGTADEDPRCKLTYFTGEVTGPDGKTIYTEWDGQKVPLKYEPNAPKVYMDASDGLLVKTAGARMAKYEFDQNAQDGGNLHGNDCVIFRFADALLMKAEAKIRLGQNGDDEVNQVRNRVGAKPLQNVTLDTLLDERMLELAWEGVRRQDLIRFGKFTEATVDRYVGVKHFASSLDYQEDKTGYTTVFSIYADILSLNPNLTQNPGY
# Key:
# Assay in all cases: glycan array binding signal (z-score within array); higher = stronger binding
# Settings in all cases: glycan notation: IUPAC condensed, linker removed
# [1] = molecular target: Neu5Ac(a2-3)Gal(b1-4)GlcNAc(b1-2)[Neu5Ac(a2-3)Gal(b1-4)GlcNAc(b1-4)]Man(a1-3)[GlcNAc(b1-4)][Neu5Ac(a2-3)Gal(b1-4)GlcNAc(b1-4)Man(a1-6)]Man(b1-4)GlcNAc(b1-4)GlcNAc
# Procedure, shortened: (§1)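 Glycan array binding is given as a within-array Z-score, which can be read as non-binding when negative. The arrays, 3228 of them, came from the Consortium for Functional Glycomics database and were retained only where the protein sequence was available. Z-scores were averaged across arrays of the same protein sequence at different concentrations or buffers and across linkers.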
# [2] = molecular target: Neu5Ac(a2-3)Gal(b1-4)GlcNAc(b1-2)[Neu5Ac(a2-3)Gal(b1-4)GlcNAc(b1-6)]Man(a1-6)[Neu5Ac(a2-3)Gal(b1-4)GlcNAc(b1-2)Man(a1-3)]Man(b1-4)GlcNAc(b1-4)GlcNAc
# Procedure, shortened: as §1
# [3] = molecular target: Neu5Ac(a2-3)Gal(b1-4)GlcNAc(b1-2)[Neu5Ac(a2-3)Gal(b1-4)GlcNAc(b1-6)]Man(a1-6)[Neu5Ac(a2-3)Gal(b1-4)GlcNAc(b1-2)Man(a1-3)][GlcNAc(b1-4)]Man(b1-4)GlcNAc(b1-4)GlcNAc
# Procedure, shortened: as §1
# [4] = molecular target: Neu5Ac(a2-3)Gal(b1-4)GlcNAc(b1-3)Gal
# Procedure, shortened: as §1
# [5] = molecular target: Neu5Ac(a2-3)Gal(b1-4)GlcNAc(b1-3)Gal(b1-3)GlcNAc
# Procedure, shortened: as §1
# [6] = molecular target: Neu5Ac(a2-3)Gal(b1-4)GlcNAc(b1-3)Gal(b1-4)GlcNAc
# Procedure, shortened: as §1
# [7] = molecular target: Neu5Ac(a2-3)Gal(b1-4)GlcNAc(b1-3)Gal(b1-4)GlcNAc(b1-2)Man(a1-3)[Neu5Ac(a2-3)Gal(b1-4)GlcNAc(b1-3)Gal(b1-4)GlcNAc(b1-2)Man(a1-6)]Man(b1-4)GlcNAc(b1-4)GlcNAc
# Procedure, shortened: as §1
# [8] = molecular target: Neu5Ac(a2-3)Gal(b1-4)GlcNAc(b1-3)Gal(b1-4)GlcNAc(b1-3)Gal(b1-4)GlcNAc
# Procedure, shortened: as §1
# [9] = molecular target: Neu5Ac(a2-3)Gal(b1-4)GlcNAc(b1-3)Gal(b1-4)GlcNAc(b1-3)Gal(b1-4)GlcNAc(b1-2)Man(a1-3)[Neu5Ac(a2-3)Gal(b1-4)GlcNAc(b1-3)Gal(b1-4)GlcNAc(b1-3)Gal(b1-4)GlcNAc(b1-2)Man(a1-6)]GalNAc
# Procedure, shortened: as §1
# [10] = molecular target: Neu5Ac(a2-3)Gal(b1-4)GlcNAc(b1-3)Gal(b1-4)GlcNAc(b1-3)GalNAc
# Procedure, shortened: as §1
# [11] = molecular target: Neu5Ac(a2-3)Gal(b1-4)GlcNAc(b1-3)Gal(b1-4)GlcNAc(b1-3)[Neu5Ac(a2-3)Gal(b1-4)GlcNAc(b1-3)Gal(b1-4)GlcNAc(b1-6)]GalNAc
# Procedure, shortened: as §1
# [12] = molecular target: Neu5Ac(a2-3)Gal(b1-4)GlcNAc(b1-3)Gal(b1-4)GlcNAc(b1-6)[Gal(b1-3)]GalNAc
# Procedure, shortened: as §1
# [13] = molecular target: Neu5Ac(a2-3)Gal(b1-4)GlcNAc(b1-3)Gal(b1-4)[Fuc(a1-3)]GlcNAc
# Procedure, shortened: as §1
# [14] = molecular target: Neu5Ac(a2-3)Gal(b1-4)GlcNAc(b1-3)GalNAc
# Procedure, shortened: as §1
# [15] = molecular target: Neu5Ac(a2-3)Gal(b1-4)GlcNAc(b1-3)[Neu5Ac(a2-3)Gal(b1-4)GlcNAc(b1-6)]GalNAc
# Procedure, shortened: as §1
# [16] = molecular target: Neu5Ac(a2-3)Gal(b1-4)GlcNAc(b1-6)GalNAc
# Procedure, shortened: as §1
# [17] = molecular target: Neu5Ac(a2-3)Gal(b1-4)GlcNAc(b1-6)[Gal(b1-3)]GalNAc
# Procedure, shortened: as §1
# [18] = molecular target: Neu5Ac(a2-3)Gal(b1-4)GlcNAc(b1-6)[Neu5Ac(a2-3)Gal(b1-3)]GalNAc
# Procedure, shortened: as §1
# [19] = molecular target: Neu5Ac(a2-3)Gal(b1-4)GlcNAc6S
# Procedure, shortened: as §1
# [20] = molecular target: Neu5Ac(a2-3)Gal(b1-4)[Fuc(a1-3)]GlcNAc
# Procedure, shortened: as §1
# [21] = molecular target: Neu5Ac(a2-3)Gal(b1-4)[Fuc(a1-3)]GlcNAc(b1-2)Man
# Procedure, shortened: as §1
# [22] = molecular target: Neu5Ac(a2-3)Gal(b1-4)[Fuc(a1-3)]GlcNAc(b1-3)Gal
# Procedure, shortened: as §1
# [23] = molecular target: Neu5Ac(a2-3)Gal(b1-4)[Fuc(a1-3)]GlcNAc(b1-3)Gal(b1-4)GlcNAc
# Procedure, shortened: as §1
# [24] = molecular target: Neu5Ac(a2-3)Gal(b1-4)[Fuc(a1-3)]GlcNAc(b1-3)Gal(b1-4)[Fuc(a1-3)]GlcNAc(b1-3)Gal(b1-4)[Fuc(a1-3)]GlcNAc
# Procedure, shortened: as §1
# [25] = molecular target: Neu5Ac(a2-3)Gal(b1-4)[Fuc(a1-3)]GlcNAc(b1-3)GalNAc
# Procedure, shortened: as §1
# [26] = molecular target: Neu5Ac(a2-3)Gal(b1-4)[Fuc(a1-3)]GlcNAc(b1-6)[Gal(b1-3)]GalNAc
# Procedure, shortened: as §1
# [27] = molecular target: Neu5Ac(a2-3)Gal(b1-4)[Fuc(a1-3)]GlcNAc(b1-6)[Neu5Ac(a2-3)Gal(b1-3)]GalNAc
# Procedure, shortened: as §1
# [28] = molecular target: Neu5Ac(a2-3)Gal(b1-4)[Fuc(a1-3)]GlcNAc6S
# Procedure, shortened: as §1
# [29] = molecular target: Neu5Ac(a2-3)Gal6S(b1-4)GlcNAc
# Procedure, shortened: as §1
# [30] = molecular target: Neu5Ac(a2-3)Gal6S(b1-4)[Fuc(a1-3)]GlcNAc
# Procedure, shortened: as §1
# [31] = molecular target: Neu5Ac(a2-3)GalNAc
# Procedure, shortened: as §1
# [32] = molecular target: Neu5Ac(a2-3)GalNAc(b1-4)GlcNAc
# Procedure, shortened: as §1
# [33] = molecular target: Neu5Ac(a2-3)[GalNAc(b1-4)]Gal(b1-4)Glc
# Procedure, shortened: as §1
# [34] = molecular target: Neu5Ac(a2-3)[GalNAc(b1-4)]Gal(b1-4)GlcNAc
# Procedure, shortened: as §1
# [35] = molecular target: Neu5Ac(a2-3)[GalNAc(b1-4)]Gal(b1-4)GlcNAc(b1-3)GalNAc
# Procedure, shortened: as §1
# [36] = molecular target: Neu5Ac(a2-3)[Neu5Ac(a2-6)]GalNAc
# Procedure, shortened: as §1
# [37] = molecular target: Neu5Ac(a2-6)Gal
# Procedure, shortened: as §1
binder,measurement,setting,value
B1,glycan array binding signal (z-score),[1],0.676
same,glycan array binding signal (z-score),[2],0.519
same,glycan array binding signal (z-score),[3],-0.381
same,glycan array binding signal (z-score),[4],-0.461
same,glycan array binding signal (z-score),[5],-0.311
same,glycan array binding signal (z-score),[6],-0.536
same,glycan array binding signal (z-score),[7],1.31
same,glycan array binding signal (z-score),[8],-0.719
same,glycan array binding signal (z-score),[9],1.63
same,glycan array binding signal (z-score),[10],-0.786
same,glycan array binding signal (z-score),[11],-0.286
same,glycan array binding signal (z-score),[12],-0.622
same,glycan array binding signal (z-score),[13],-0.528
same,glycan array binding signal (z-score),[14],0.226
same,glycan array binding signal (z-score),[15],0.45
same,glycan array binding signal (z-score),[16],0.316
same,glycan array binding signal (z-score),[17],-0.463
same,glycan array binding signal (z-score),[18],1.08
same,glycan array binding signal (z-score),[19],-0.441
same,glycan array binding signal (z-score),[20],-0.204
same,glycan array binding signal (z-score),[21],-0.709
same,glycan array binding signal (z-score),[22],-0.663
same,glycan array binding signal (z-score),[23],0.388
same,glycan array binding signal (z-score),[24],0.523
same,glycan array binding signal (z-score),[25],1.68
same,glycan array binding signal (z-score),[26],-0.177
same,glycan array binding signal (z-score),[27],-0.333
same,glycan array binding signal (z-score),[28],-0.587
same,glycan array binding signal (z-score),[29],-0.416
same,glycan array binding signal (z-score),[30],-0.515
same,glycan array binding signal (z-score),[31],-0.359
same,glycan array binding signal (z-score),[32],-0.846
same,glycan array binding signal (z-score),[33],1.56
same,glycan array binding signal (z-score),[34],-0.018
same,glycan array binding signal (z-score),[35],0.061
same,glycan array binding signal (z-score),[36],-0.416
same,glycan array binding signal (z-score),[37],-0.557
